Assay results reported in PubChem BioAssay AID463173 (ICCB-Longwood Screening Facility, Harvard Medical School, 2010).
Out of some 52,000 compounds screened, about 1,700 (3.3%) were called active. Cut-off read from the data, not from the text of the source: active = survival mostly below about 52% (no sharp cut-off); inactive = mostly above about 56%. The list shows a part of the results.

What follows are molecules tested on Wild type (assay: S. aureus survival, RN4220 and DeltatarO strains – OD600, teichoic acid synthesis inhibitors, primary screen (AID 463173)). Conditions: S. aureus RN4220 wild type/DeltatarO growth, OD600, 18 h, active compounds read low, screened at 18.75 µg/mL (by protocol).
In the case of CCOc1ccc(-c2nnc(SCC(=O)Nc3cccc(C#N)c3)o2)cc1, the survival is reported as inactive: 58%.
For COc1ccc(-c2c(C)c3ccc(O)c(CN4CCOCC4)c3oc2=O)cc1OC, the survival was inactive: 152%.
With COc1cccc(NC(=O)Nc2ccc3c(c2)N(C)C(=O)c2ccccc2S3)c1 the survival was inactive: 53%.
CC1CCN(C(=O)Cn2c(-c3cccs3)cc3cc(Cl)ccc32)CC1 was tested, and the survival was inactive: 83%.
With CCCN1Cc2cccc(C(=O)Nc3cc(Cl)ccc3C)c2C1=O the survival was inactive: 91%.
With Cc1cc(C)c2c(c1)c(C)cc1nnc(SCC(=O)c3ccccc3)n12 the survival was inactive: 78%.
In the case of Cc1ccc(C)c(NC(=O)C(CC(C)C)N2Cc3ccccc3C2=O)c1 (stereo not drawn), the survival is reported as inactive: 159%.
With O=C(CSc1nccn1Cc1ccc(F)cc1)NCc1ccco1 the survival was inactive: 67%.
In the case of Cc1cccc(NC(=O)c2sc3ncnc(N(C)C4CCCCC4)c3c2C)c1C, the survival is reported as inactive: 128%.
CC(C)(C)c1ccc(C(=O)Nc2ccc(-c3nc4ccccc4o3)c(O)c2)cc1 was tested, and the survival was inactive: 72%.
O=C(CN1C(=O)c2ccccc2Sc2ccc(C(=O)N3CCOCC3)cc21)Nc1ccc(Cl)cc1F was tested, and the survival was inactive: 73%.
For CCN1CCN(Cc2c(O)ccc3oc(C)c(C(=O)Nc4cccc(C(F)(F)F)c4)c23)CC1, the survival was inactive: 116%.
In the case of COc1cccc(NC(=O)c2c(C)oc3nc(C)nc(N4CCCC4)c23)c1, the survival is reported as inactive: 53%.
CCN(CC)c1ccc2cc(-c3nc4sc5c(c4c(=O)[nH]3)CCC(C(C)(C)C)C5)c(=O)oc2c1 (stereo not drawn) was tested, and the survival was inactive: 84%.
For O=C(NCc1ccco1)Nc1ccccc1, the survival was inactive: 109%.
In the case of Cc1cccc(C)c1NC(=O)c1cc(S(=O)(=O)N2CCc3ccccc3C2)ccc1F, the survival is reported as inactive: 152%.
In the case of CCC(=O)N1CCc2cc(S(=O)(=O)CCC(=O)N3CCN(c4cccc(C)c4C)CC3)ccc21, the survival is reported as inactive: 79%.
In the case of COc1ccc(CC(=O)Nc2nc3c(s2)CCCC3)cc1, the survival is reported as inactive: 100%.
Cc1ccc2c(c1)N(C(=O)CCC(=O)NCc1cccc(F)c1)CC(C)O2 (stereo not drawn) was tested, and the survival was inactive: 86%.
With CCOC(=O)c1cccc(NC(=O)CCS(=O)(=O)c2ccc3c(c2)CCN3C(=O)CC)c1 the survival was inactive: 89%.
O=C(c1ccc(Cl)cc1)n1nc(-c2cccnc2)nc1NCc1ccc(F)cc1 was tested, and the survival was inactive: 68%.
In the case of COc1cccc2cc(-c3nc(-c4ccc(Cl)cc4)cs3)c(=O)oc12, the survival is reported as inactive: 88%.
CCOc1ccc(-c2cc3c(=O)n(CC(=O)NCc4ccc(F)cc4)ccn3n2)cc1 was tested, and the survival was inactive: 71%.
With CCn1c(=O)c2sccc2n2c(CCCC(=O)N3CCN(c4ccc(F)cc4)CC3)nnc12 the survival was inactive: 99%.
COC(=O)c1oc2nc(C)cc(C)c2c1N was tested, and the survival was inactive: 128%.
With CC(=O)c1cccc(NC(=O)c2ccc3nc(Cc4ccccc4)oc3c2)c1 the survival was inactive: 45%.
In the case of O=C(CSc1ncccc1C(=O)Oc1ccccc1Cl)Nc1ccc(C(F)(F)F)cc1Cl, the survival is reported as inactive: 85%.
In the case of CCOC(=O)c1c(C)[n+]([O-])c2ccc3c(non3O)c12, the survival is reported as inactive: 94%.
In the case of COC(=O)c1ccc(NC(=O)C(=O)NCCc2csc(-c3ccc(F)cc3)n2)cc1, the survival is reported as inactive: 127%.
With Cc1ccc(O)c(NC(=O)C2=CC(c3ccco3)=NS(=O)(=O)N2C)c1 the survival was inactive: 81%.
With COc1ccc(N2CCN(Cc3nc4c(c(=O)[nH]c(=O)n4C)n3Cc3ccccc3C)CC2)cc1 the survival was inactive: 120%.
With Cc1csc2nc(COC(=O)CNC(=O)c3ccccc3)cc(=O)n12 the survival was inactive: 85%.
C=CCSc1nnc(-c2ccccc2)n1-c1ccccc1 was tested, and the survival was inactive: 106%.
With COc1ccc(NC(=O)C2CCCN(S(=O)(=O)c3ccc(F)cc3)C2)cc1 (stereo not drawn) the survival was inactive: 85%.
CC(=O)N1CCN(C(=O)C2(NC(=O)Nc3ccc(C)cc3)CCCCC2)CC1 was tested, and the survival was inactive: 108%.
Cc1ccc(CN(C(=O)COc2ccccc2[N+](=O)[O-])c2ccccn2)o1 was tested, and the survival was inactive: 80%.
In the case of O=c1oc2ccccc2cc1-c1cn2cc(Cc3cc(Cl)ccc3Cl)sc2n1, the survival is reported as inactive: 68%.
In the case of CCc1nnc(NC(=O)CSc2nc3c([nH]c4ccccc43)c(=O)n2-c2ccc(Cl)cc2)s1, the survival is reported as inactive: 66%.
In the case of FC(F)(F)c1cc(-c2ccccc2)nc2cc(-c3ccccc3)nn12, the survival is reported as inactive: 75%.
In the case of CCN(CC)S(=O)(=O)c1ccc2c(c1)N(CC(=O)Nc1cccc(C#N)c1)C(=O)CO2, the survival is reported as inactive: 74%.
With CCOc1ccc(N2C(=O)CC3(CC(C(=O)OCc4ccccc4)=NN3)C2=O)cc1 (stereo not drawn) the survival was inactive: 105%.
For Cc1ccc2onc(CC(=O)N3CCN(c4cccc(Cl)c4)CC3)c2c1, the survival was inactive: 82%.
With Cc1cc(F)ccc1NC(=O)Cn1cc(S(=O)(=O)NC(C)C)c(S(=O)(=O)NC(C)C)c1 the survival was inactive: 73%.
With CCCCSc1nc2sc3c(c2c(=O)n1-c1ccccc1C)CC(C)(C)OC3 the survival was inactive: 67%.
In the case of O=C(c1ccccc1)N1CCN(CCc2ccccn2)CC1, the survival is reported as inactive: 81%.
For COc1ccc(NC(=O)CNC(=O)Cn2c(C)cc3ccccc3c2=O)c(OC)c1, the survival was inactive: 64%.
In the case of CCOc1ccc(-n2cc(-c3ccccc3)c3c(Nc4cccc(F)c4)ncnc32)cc1, the survival is reported as inactive: 80%.
In the case of CCOc1ccc(C(=O)Nc2nnc(SCc3cc(=O)n4ccccc4n3)s2)cc1, the survival is reported as inactive: 69%.
In the case of Cc1ccc(NC(=O)c2cnc(N3CCCC3)nc2C)cc1F, the survival is reported as inactive: 72%.
For CCN(Cc1ccccc1)S(=O)(=O)c1cc(Br)cc2c1N(C(=O)C1CC1)CC2, the survival was inactive: 64%.
COC(=O)C1=C(C)Nc2ccccc2S1 was tested, and the survival was inactive: 108%.
For COc1cccc(C(=O)Nc2c(C(=O)Nc3ccc(F)cc3)oc3ccccc23)c1OC, the survival was inactive: 74%.
CC(CNC(=O)CCn1c(=O)c2cccn2c2ccc(F)cc21)c1ccccc1 (stereo not drawn) was tested, and the survival was inactive: 62%.
In the case of CCOC(=O)c1ccccc1NC(=O)CSc1c(C)cnc2c1c(=O)n(C)c(=O)n2C, the survival is reported as inactive: 59%.
With NC(=O)CSc1nnc(CNc2ccc(Cl)cc2)n1Cc1ccccc1 the survival was inactive: 125%.
In the case of COCCCNC(=O)c1ccc(CSc2nc3cccnc3n2Cc2ccc(OC)cc2)cc1, the survival is reported as inactive: 94%.
Cc1cc(C)c(S(=O)(=O)Nc2ccc3oc4c(c3c2)CCCC4)cc1C was tested, and the survival was inactive: 72%.
In the case of COc1nc(C)c(/C=C/C(=O)N(C(=O)NC2CCCCC2)C2CCCCC2)c(OC)n1, the survival is reported as inactive: 101%.
